From PubChem BioAssay AID1645852 (National Center for Advancing Translational Sciences (NCATS), 2021)
Screen size: about 1,200 compounds; about 160 (13%) were called active. Inconclusive means that the source gave no clear call. Such entries were picked first, then a sample of the others. Calls follow the shape of the dose curve; as a rule, active = well fitted inhibition curve with a large enough effect; inconclusive = small, poorly fitted or top-dose-only effect; inactive = no such curve, though single readings can be large or run the other way. A potency beside an inconclusive call is a rough fit, not a confirmed value.

The compounds below were run against Inositol hexakisphosphate kinase 1 (Homo sapiens) (UniProt Q92551) (assay: Confirmatory qHTS assay for small molecule inhibitors of Inositol hexaphosphate kinase 1 (IP6K1)). Conditions: recombinant IP6K1 kinase, ADP-Glo luminescence, 2 h; series mostly up to 49 µM.
Chain of UniProt Q92551 (Q92551 whole entry, looked up): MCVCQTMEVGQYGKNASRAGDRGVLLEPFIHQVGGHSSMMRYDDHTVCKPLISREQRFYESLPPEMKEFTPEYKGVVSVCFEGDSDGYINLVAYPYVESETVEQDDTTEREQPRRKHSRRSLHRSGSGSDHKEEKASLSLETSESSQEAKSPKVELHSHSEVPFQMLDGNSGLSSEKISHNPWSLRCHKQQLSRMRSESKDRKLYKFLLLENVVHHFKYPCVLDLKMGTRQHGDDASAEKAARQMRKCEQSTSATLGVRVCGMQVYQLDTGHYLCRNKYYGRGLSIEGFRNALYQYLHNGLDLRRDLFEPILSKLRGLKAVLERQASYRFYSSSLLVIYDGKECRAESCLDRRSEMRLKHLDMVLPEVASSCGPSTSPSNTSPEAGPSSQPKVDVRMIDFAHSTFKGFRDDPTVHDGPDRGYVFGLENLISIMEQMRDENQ
Method in brief: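 Screening used the top two library doses against IP6K1 with ATP and IP6 substrates. ADP formation after a 2 hr room-temperature reaction was read by ADP-Glo Max luminescence.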
Also: nearly all actives have a fitted effect of over 65% in size.
Potency is read from the fitted curve at half-maximal effect; tags tell the direction and shape of the fitted curve.

Structure (SMILES)	Potency
CCC[C@H](NC(=O)C(C#N)=Cc1cccc(Br)n1)c1ccccc1	inconclusive: 4.61 µM [inhibitor, partial curve]
NC(=O)c1cnc2[nH]ccc2c1NC1C2CC3C[C@H]1CC(O)(C3)C2 (some centres undefined)	inconclusive: 0.58 µM [inhibitor, partial curve]
COc1ccc(-n2c(=O)c3c4c(sc3n(Cc3cc(=O)n5c(C)cccc5n3)c2=O)CCC4)c(OC)c1	inactive
COc1cc(Nc2ncc3c(n2)-c2ccc(Cl)cc2C(c2c(F)cccc2OC)=NC3)ccc1C(=O)O	inconclusive: 9.2 µM [inhibitor, partial curve]
Cc1cc(C)c(NC(=O)Cn2c(=O)n(-c3ccc(F)cc3)c(=O)c3c(C)c(C(=O)N(C)C)sc32)c(C)c1	inactive
CCOC(=O)c1ccc(NC(=O)CC2C(=O)N(c3ccc(F)cc3)C(=O)N2Cc2ccc(C)cc2)cc1 (centres undefined)	inconclusive: 8.2 µM [inhibitor, partial curve]
O=C1CCC2(CCCO2)CCN1Cc1cccc(F)c1F (centres undefined)	inactive
COc1ccc(NC(=O)C2CCC(CNS(=O)(=O)c3csc(C(N)=O)c3)CC2)cc1 (centres undefined)	inconclusive: 11.6 µM [inhibitor, partial curve, poor fit]
CCOC(=O)c1csc(Nc2ccc(Cl)cc2)n1	inconclusive: 28.2 µM [inhibitor, partial curve, poor fit]
Cc1cc(F)c(C(=O)Nc2cccc(-c3nncn3C(C)C)n2)cc1-n1cnc(C2CC2)c1	inconclusive: 23.1 µM [inhibitor, partial curve]
O=C(O)c1ccccc1Nc1cccc(C(F)(F)F)c1	inconclusive: 16.4 µM [inhibitor, partial curve]
CN(C)c1ccc(C(=C2C=CC(=[N+](C)C)C=C2)c2ccccc2)cc1	active: 14.6 µM
Cc1ccc(CN(Cc2ccco2)C(=O)c2oc3c(C)c(C)ccc3c2C)cc1	inconclusive: 25.9 µM [inhibitor, partial curve]
COc1ccccc1NC(=O)c1c(NC(=O)c2ccccc2Cl)sc2c1CCC2	inactive
O=C(NCC1CC1)c1ccc2nnc(Cc3ccco3)n2c1	inconclusive: 37.5 µM [inhibitor, partial curve, poor fit]
COc1cccc(OC(=O)CSc2nnc(-c3ccc4c(c3)OCO4)o2)c1	inconclusive: 32.6 µM [inhibitor, partial curve, poor fit]
Nc1ccc(C(=O)O)c(O)c1	inactive
COc1cc(NC(=O)Nc2cccc(CNC(=O)O[C@H]3CCOC3)c2)ccc1-c1cnco1	active: 8.2 µM
COc1cncc(Nc2cnc3ccc(-c4ccccc4)nn23)c1	inconclusive: 29.8 µM [inhibitor, partial curve]
Cc1ccc(OCc2ccc(-c3nc(C#N)c(N4CCN(c5cccc(Cl)c5)CC4)o3)o2)cc1	inactive
COc1cc(NC(=O)Cn2c(=O)nc(-c3ccccc3F)c3cc(Cl)ccc32)cc(OC)c1	inconclusive: 23.1 µM [inhibitor, partial curve, poor fit]
CC[C@@H]1C(=O)N(C)c2cnc(Nc3ccc(C(=O)NC4CCN(C)CC4)cc3OC)nc2N1C1CCCC1	inactive

Structure (SMILES)	Potency
COc1cc2ncnc(Nc3cc(Br)c(O)c(Br)c3)c2cc1OC	inconclusive: 9.2 µM [inhibitor, partial curve]
Cc1ccc(-n2[nH]c(C)c(N=Nc3cccc(-c4cccc(C(=O)O)c4)c3O)c2=O)cc1C	inconclusive: 23.1 µM [inhibitor, single point]
C=C1CCC2C(C)(C)C(O)CCC2(C)C1CCC(C)CCO (centres undefined)	inconclusive: 4.04 µM [inhibitor, partial curve, poor fit]
COc1ccc2nc(N3CCN(C(=O)CS(=O)(=O)c4ccc(C)cc4)CC3)sc2c1	inactive
O=S(=O)(c1cccc(Cl)c1)n1c(/C=C/c2ccccc2Cl)nc2ccccc21	inconclusive: 14.6 µM [inhibitor, partial curve]
Cc1ccccc1NC(=O)c1c(C)oc2ccc(O)c(CN3CCCCCC3)c12	inactive
CCCCCCCC(=O)[O-].CCCCCCCC(=O)[O-].[Zn+2]	inconclusive: 8.2 µM [inhibitor, partial curve]
CN1C[C@H](NCc2ccc(F)cc2)CCC[C@@H](C(=O)NC2CC2)CC1=O	inconclusive: 33.5 µM [inhibitor, partial curve]
Cc1cccc(C(=O)n2nc(-c3cccnc3)nc2NCc2ccccc2)c1	inconclusive: 20.6 µM [inhibitor, partial curve, poor fit]
CCCCCCCCCCCCCCCCC(C(=O)O)C(O)(CC(=O)O)C(=O)O (centres undefined)	active: 23.1 µM
CCCCNC(=O)C1CCN(c2nc3ccccc3nc2C(F)(F)F)CC1	inactive
COCC(=O)Nc1cccc(-c2nc3cccnc3s2)c1	inconclusive: 18.4 µM [inhibitor, partial curve]
NC(=O)Cc1c[nH]c2ncc(-c3cccc(OC(F)(F)F)c3)cc12	inconclusive: 26.6 µM [inhibitor, partial curve]
O=C(O)CCn1cnc2onc(-c3ccccc3Cl)c2c1=O	inactive
CCCS(=O)(=O)Nc1ccc(F)c(C(=O)c2c[nH]c3ncc(Cl)cc23)c1F	inconclusive: 10.3 µM [inhibitor, partial curve]
COc1ccc(CCNc2nc3c(-c4cccc(C)c4)nnn3c3ccccc23)cc1OC	inactive
Nc1nc(Nc2ccc(S(N)(=O)=O)cc2)nn1C(=O)c1c(F)cccc1F	inconclusive: 9.2 µM [inhibitor, partial curve]
O=c1ncn(CC2CC2)c2ccc(-c3ccoc3)nc12	inactive
Cc1cc(C)cc(OC(=O)c2snnc2C)c1	inactive
CC1CN(C(=O)CCC(=O)NCc2ccc(F)cc2)c2cc(Cl)ccc2O1 (centres undefined)	inactive
COc1ccc(S(=O)(=O)N(CC(=O)NCc2ccccc2)c2ccc(C)cc2)cc1OC	inactive
COc1ccc(-c2nc(-c3c(C)noc3C)cc3cc(CN(C)C)oc23)cn1	inconclusive: 14.9 µM [inhibitor, partial curve]
